Laboratory results as given in ChEMBL document CHEMBL4888484, “Replenishing the malaria drug discovery pipeline: Screening and hit evaluation of the MMV Hit Generation Library 1 (HGL1) against asexual blood stage Plasmodium falciparum ,using a nano luciferase reporter read-out” (2022).
Among all 150,000 compounds or so, about 540 (0.36%) showed an effect of 50% or more. Some of the results follow.

These molecules were tested on Plasmodium falciparum (assay: Primary screen in NF54 nanoGlo assay, in single point, at 2uM, 72h; a lower Z score goes with more inhibition). Conditions: timepoint 72 hour.
Assay type: functional, Erythrocyte

SMILES	% Inhibition [%]	Z score
COc1ccc(N(C)S(=O)(=O)c2c(-c3ccccc3)csc2C(=O)Nc2cccc(C)c2)cc1	-14	1.89
COc1ccc(CCC(=O)N2CCC3(CC2)C[C@@H](CCOCC2CC2)CCO3)cc1	-9	1.72
CC1CCN(Cc2nnnn2CCCC(=O)N2CCC(c3ccccc3)CC2)CC1	-8	1.05
CC(C)Oc1ccc(S(=O)(=O)N[C@H]2CCCS(=O)(=O)C2)cn1	-2	0.21
O=C(Nc1nnc(-c2ccccc2)o1)[C@@H]1COc2ccccc2O1	-10	1.74
CC1(c2ccccc2)COC2(OC1)C(=O)N(CN1CCOCC1)c1ccccc12 (stereo not given)	-1	0.26
Cc1nc(-c2noc(-c3cccc(F)c3)n2)cn1CC(=O)Nc1ccc(F)cc1	-4	0.47
CCc1nnc(C(=O)N(CC)CC(CC)CC)s1	-7	0.98
N#C[C@@H](C(=O)Nc1cccnc1)c1nc2cc(Cl)ccc2s1	5	-0.72
O=C(N[C@H]1CC2(CCCCC2)Oc2ccccc21)N1CCS(=O)(=O)CC1	-1	0.09
CN(Cc1cc(C2CC2)on1)Cc1ccc([C@@H]2CCCO2)s1	-6	1.13
CC1CCN(C[C@@H]2OC[C@H](NC(=O)c3cccs3)[C@H]2O)CC1	5	-0.6
COc1ccccc1C(=O)Nc1c(C(=O)N2CCC(C)CC2)sc2nc(C)c(Cl)c(C)c12	-1	0.07
O=C(C(C1CC1)C1CC1)N1CCn2ncnc2C1	3	-0.57
CCC(C)CC(C)NC(=O)N1CCOCC1CC(C)O (stereo not given)	-8	1.05
FC(F)(F)CN1CC[C@H](NC2Cc3ccccc3C2)C1	-3	0.44
CS(=O)(=O)c1ccc(CN2CC(c3cccnc3)C2)cc1	-1	0.2
COCC1(Cn2cnc3ccc(OC)cc3c2=O)CCC1	-5	0.69
O=C(c1cc2sccc2[nH]1)N1CCc2nc[nH]c2[C@H]1c1ccncc1	-2	0.39
O=C(COc1ccccc1F)c1ccc2c(c1)N(Cc1ccc(C(=O)NCCc3ccccn3)o1)C(=O)CO2	-20	1.86
CCn1ncc2c1CCCC2NC(C)C(=O)Nc1nc(C)c(C)s1 (stereo not given)	-2	0.14
NC1CCC(C(=O)N(Cc2cccs2)Cc2cccs2)C1 (stereo not given)	-6	0.6

SMILES	% Inhibition [%]	Z score
CN(C)c1nc(N2CCN(C3CCCCC3)CC2)nc2c1CN(S(=O)(=O)c1cccc(Cl)c1)CC2	-5	1.01
O=C(CN1CCCCCC1)Nc1nc(-c2ccccc2)cc(-c2ccc(Cl)cc2)n1	-9	1.44
Cc1ccc(CC(=O)Nc2ccc(OC3CCCCC3O)cc2)o1 (stereo not given)	-5	0.62
Cc1ccc(-c2cc(O)c3c(c2)CNCCO3)s1	-5	0.7
Cc1noc(CN2CCCC[C@H]2C(=O)Nc2cccc(-c3nnc(C)s3)c2)n1	-4	0.56
CC1CN(C(=O)C2=NN(C)C(=O)CC2)C(C)CO1 (stereo not given)	-8	0.77
Cc1ccc(N2CCCN(Cc3ccc(OC(F)(F)F)cc3)C2=O)c(NC(=O)c2ccc(F)cc2F)c1	2	-0.23
COCCCNC(=O)CN(C)c1ccccc1OC	-9	1.21
CNS(=O)(=O)C1CCN(C[C@@H](O)c2cc3ccccc3o2)CC1	-15	1.74
Cc1cc(=O)cc(C(=O)N[C@@H](C)c2ncccc2C)[nH]1	11	-1.23
O=C(C[C@H]1C(=O)Nc2ccccc2N1C(=O)COc1ccc(Cl)cc1)Nc1ccccc1	8	-1.17
Cc1cc2n(n1)CCCN(C(=O)Nc1ccc3nc(C)sc3c1)C2	-4	0.72
N#Cc1ccccc1OCC(=O)OCC(N)=O	11	-1.53
CCc1ccccc1NC(=O)c1cn2c3c(cc(Br)cc3c1=O)CC2	-3	0.35
CNc1cc(-c2ccc(C(=O)N[C@@H](C)CCn3cccn3)cc2)nc(N)n1	-7	1.05
CCCN1CCC(C(=O)N(Cc2ccco2)C[C@H]2CCCO2)CC1	-2	0.36
COc1ccc(C(=O)N2CCC(F)(C(=O)N3CCCC3)CC2)cc1F	-10	1.34
CS(=O)(=O)N1CCC(C(=O)Nc2ccccc2-c2ccc(=O)[nH]n2)CC1	-12	1.52
CCCOC[C@H]1CCN(C(=O)Cn2ccc3ccccc3c2=O)C1	-5	0.46
COCCNC(=O)NCC1(c2ccsc2)CCCC1	-13	2.45
CCCc1nn(-c2ccccc2)c(CC)c1C(=O)NCc1ccncc1	0	0.04
C=C(C)CS(=O)(=O)Nc1ccc(F)cc1	-10	1.13

SMILES	% Inhibition [%]	Z score
CCn1cnnc1CN(C)C(=O)c1ccc(-c2cnn(C)c2C(=O)OC)cc1	-4	0.74
C[C@@H](O)CNS(=O)(=O)c1cccc(C#N)c1Cl	-3	0.5
Cc1ncc(NC(=O)Cc2ccccc2)n1-c1nc(-c2cccs2)cs1	-38	4.42
CC(C(=O)NCc1cccs1)N1CCOC(Cn2cccn2)C1 (stereo not given)	-2	0.23
Cc1cccc(C)c1Nc1c(-c2cccs2)nc2cnccn12	-15	1.51
COC(=O)c1n[nH]cc1-c1cc(-c2ccc(C)cc2C)nc(N)c1C#N	0	0.06
Cc1ccccc1C1NC(=O)N(CC(O)Cn2cccn2)C1=O (stereo not given)	-14	2.54
O=S1(=O)CC[C@H](CCN(CCO)Cc2ccc(F)cc2)C1	-12	1.42
O=C(c1cnccn1)N1C[C@H]2CC[C@@H](C1)N(C(=O)CC1CCCCC1)C2	1	-0.11
Cc1ccc(C)c(S(=O)(=O)n2nc(C)c(S(=O)(=O)N3CCCCCC3)c2C)c1	-14	1.29
Cc1c[nH]c(CN(C)C(=O)c2cccc(NCc3ccccn3)c2C)n1	-4	0.77
COc1cn(CC(=O)Nc2ccc3c(c2)OCCO3)c(CN2CCC(C)CC2)cc1=O	-2	0.4
Cc1n[nH]c(CN(C)CCN2CCCC[C@@H]2C)n1	-2	0.31
CC1CN(c2nnc(C3CC3)n2CC2CCOC2)CC(C2CC2)O1 (stereo not given)	-4	0.7
OCCc1cc(CC2(NC3CCCCC3)COC2)no1	-5	0.83
Cc1cc(C)n(-c2ccc(-n3cnnc3)cc2)n1	-4	0.69
CC[C@H]1CCCCN1C(=O)C1CCN(C(=O)c2cccs2)CC1	-16	1.92
O=C(CN(CCN1CCOCC1)C(=O)C1CCC1)N1CCN(c2ccc(-c3ccc(Cl)cc3Cl)nn2)CC1	-20	1.76
CCc1nnc(NC(=O)N2CCN(C(=O)Cc3ccccc3)CC2)s1	-13	1.3
O=C(C1CCCCC1)N1CCC[C@H](Oc2ccncn2)C1	-4	0.72
Cc1cccc(OCCO[C@@H]2CCCCO2)n1	-3	0.44
COc1cc(C)c(S(=O)(=O)N2CCN=C2Cc2cccc3ccccc23)cc1C	-5	0.73

SMILES	% Inhibition [%]	Z score
O=C(Nc1ccc(Oc2cccc3[nH]ccc23)nc1)c1ccsc1	-23	3.32
O=C(c1ccc2nsnc2c1)N1CCC(COCc2ccccc2)CC1	-4	0.54
O=C(CCC1CCN(CCCC2CCCC2)CC1)NC[C@H]1CCCO1	-1	0.16
Cc1ccc(CN2CC[C@@H](N3CCN(C(=O)c4cccs4)CC3)CCC2=O)cc1	-10	1.27
Cc1cccc([C@H]2CCCN(C(=O)CN3CCCCCC3=O)C2)c1	-6	0.7
O=C1NCCCCCN(C(=O)Cc2ccccc2)[C@H]2CCC[C@@H]12	-1	0.14
CC(C)[C@H](O)C1(CNc2cccnc2C#N)CC1	-6	0.75
CCCS(=O)(=O)N1C[C@H](Nc2ncccn2)[C@@H](C(C)C)C1	-17	2.18
C[C@H]1CN(CCO)CCN1C(=O)Nc1ncc(C(C)(C)C)s1	-4	0.71
Cc1cc(COc2ccccc2)oc1C(=O)N1CCn2nc([C@H](C)O)cc2C1	-3	0.59
COCCn1cc(CNc2ncnc3sccc23)cn1	-9	1.85
COc1ccnc(CNC(=O)c2cccc(CN3CCCCCC3)c2)c1	0	0.09
FC(F)Oc1ccc([C@@H]2CN(CCc3ccncc3)CCO2)cc1	-8	1.24
CC(C)(C)c1cc(C(=O)OCc2ccccc2C(N)=O)no1	-9	0.74
COc1ccc(NC(=O)C(C(=O)Nc2ccc(OC)cc2)C(=O)Nc2ccc(OC)cc2)cc1	2	-0.42
CC(C)c1scnc1C(=O)NCc1ccsc1	-3	0.52
Cc1cnc(C(=O)N2CCCN(c3ccc(F)c(F)c3)CC2)c(O)c1	-7	1.48
N#Cc1ccncc1N1CCNC(=O)C1	-6	1.01
C#CCOC[C@@H](O)CN(CCCOC)Cc1cccc(C)c1	-14	2.56
